In paper PMC4336329 (PLoS ONE, 2015):
In all, about 310,000 compounds went through this assay and about 2,200 (0.71%) showed an effect of 50% or more. The effect is printed as a negative number. The list shows a part of the results.

These molecules were tested against human ether-à-go-go-related gene (hERG) potassium channel (human, UniProt Q12809) (assay: primary screen, population patch clamp on CHO cells stably expressing hERG).
Sequence of human ether-à-go-go-related gene (hERG) potassium channel (Q12809 whole entry, looked up): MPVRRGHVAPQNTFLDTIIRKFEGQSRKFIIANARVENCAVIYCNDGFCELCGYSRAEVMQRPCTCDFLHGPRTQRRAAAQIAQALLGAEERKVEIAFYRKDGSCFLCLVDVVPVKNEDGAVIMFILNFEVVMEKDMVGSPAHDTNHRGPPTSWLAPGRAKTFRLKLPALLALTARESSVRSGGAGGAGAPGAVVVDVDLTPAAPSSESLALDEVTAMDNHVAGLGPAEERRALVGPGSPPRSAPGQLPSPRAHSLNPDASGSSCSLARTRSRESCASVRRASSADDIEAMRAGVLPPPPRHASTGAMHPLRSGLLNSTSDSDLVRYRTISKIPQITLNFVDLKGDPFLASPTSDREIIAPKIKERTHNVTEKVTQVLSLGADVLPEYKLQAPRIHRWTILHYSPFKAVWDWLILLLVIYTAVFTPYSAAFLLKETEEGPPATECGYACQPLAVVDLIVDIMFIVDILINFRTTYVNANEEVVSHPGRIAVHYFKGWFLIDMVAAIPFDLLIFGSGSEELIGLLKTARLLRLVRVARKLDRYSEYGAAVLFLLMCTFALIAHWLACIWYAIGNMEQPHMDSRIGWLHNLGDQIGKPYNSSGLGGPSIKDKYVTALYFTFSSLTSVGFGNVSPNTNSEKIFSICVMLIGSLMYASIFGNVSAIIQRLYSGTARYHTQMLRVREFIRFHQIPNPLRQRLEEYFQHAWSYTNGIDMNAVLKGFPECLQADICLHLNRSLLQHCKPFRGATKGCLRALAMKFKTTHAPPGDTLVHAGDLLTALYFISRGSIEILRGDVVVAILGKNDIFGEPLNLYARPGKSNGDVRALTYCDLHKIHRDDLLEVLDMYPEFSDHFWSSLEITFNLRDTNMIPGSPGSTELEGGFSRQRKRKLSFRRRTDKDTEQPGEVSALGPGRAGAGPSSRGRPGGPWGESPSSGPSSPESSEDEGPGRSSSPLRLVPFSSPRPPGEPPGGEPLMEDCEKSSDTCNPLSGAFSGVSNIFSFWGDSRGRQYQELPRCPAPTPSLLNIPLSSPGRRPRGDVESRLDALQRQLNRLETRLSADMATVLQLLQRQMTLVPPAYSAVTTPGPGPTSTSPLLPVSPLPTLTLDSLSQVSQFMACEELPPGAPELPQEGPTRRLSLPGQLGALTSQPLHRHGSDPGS

Structure (SMILES)	hERG current change (%, negative = inhibition) at 1uM [%]
CCOC(=O)N/N=C\c1ccc(OC(=O)c2ccco2)cc1	17.9
CCCCn1c(N)c(N(CC(C)C)C(=O)c2cc3c(s2)CCCCC3)c(=O)[nH]c1=O	-6.57
CCCCCC(C)n1[nH]c(=O)c2c(C)cc(C)nc21 (stereo not shown)	18.1
COc1ccc(NC(=O)CCc2ccccc2)cc1NC(=O)c1ccco1	0.649
Cc1ccsc1/C=N/NC(=O)c1ccncc1	8.31
C[C@H](NC(=O)c1nc[nH]c1C(=O)NCC(=O)OCc1ccccc1)C(=O)OC(C)(C)C	6.28
Cc1c(CN2CCCC(C(=O)c3cccc(Cl)c3)C2)c(=O)n(-c2ccccc2)n1C (stereo not shown)	1.56
O=C(Nc1ccc(Cl)cc1)C1C2C=CC3(O2)C1C(=O)N(CCCN1CCCCC1)C3C(=O)NC1CCCCC1 (stereo not shown)	4.08
O=C(CCC1CCCC1)NCc1ccccn1	13.5
COC(=O)C(C)(N)Cc1ccc(O)cc1.Cl (stereo not shown)	12.7
COC(=O)C1=NN(C(C)(C)CC(C)=O)C2C(=O)N(C3CCCCC3)C(=O)C12 (stereo not shown)	4.56
Cc1cc(C)n(-c2nc3nonc3nc2-n2nc(C)cc2C)n1	8.19
CCN(CC(=O)NC1CCCCCC1)S(=O)(=O)c1ccccc1	-13.9
COc1ccc(C(=O)n2cnc3ccccc32)cc1[N+](=O)[O-]	9.89
COc1ccc(-n2c(C)nn(CCOc3ccccc3)c2=O)cc1	2.62
O=C(O)c1ccc(NC(=O)c2cn(-c3ccccc3)nc2-c2ccc(Br)cc2)cc1	12.8
O=C(c1cccc(F)c1)N1CCN(C(=O)C(c2ccccc2)c2ccccc2)CC1	-11.4
C=CCOC(=O)C1=C[C@@H](c2ccc(C(F)(F)F)cc2)[C@H](CCCO)[C@@H](OCC)O1	-6.23
CCC(C)N(C(=O)C(F)(F)F)C(C(=O)NC1CCCCC1)c1ccncc1 (stereo not shown)	1.64
O=C1CCC(CCC(=O)N2CCCC(C(=O)c3ccc4c5c(cccc35)CC4)C2)=NN1 (stereo not shown)	-26.5
Cc1ccccc1C(=O)NNC(=O)CCCCC(=O)NNC(=O)c1ccccc1C	10.8
COC(=O)CSc1cc(C)nc2ccc(OC)cc12	-4.96

Structure (SMILES)	hERG current change (%, negative = inhibition) at 1uM [%]
CCOc1nsc(OCC)n1	1.94
CCc1nnc(NC(=O)CSc2nnc(-c3ccoc3C)n2CC(C)C)s1	7.66
CN(CC(=O)NC1CCN(Cc2ccccc2)CC1)S(=O)(=O)c1ccc(Cl)cc1	1.3
CC(=O)c1cccc(NC(=O)CSc2ccc(-c3ccccn3)nn2)c1	3.73
O=C(Nc1ccc(Cl)cc1C(=O)N1CCCC1)c1cccc([N+](=O)[O-])c1	2.77
COc1ccc(NC(=O)C2CCCN(S(=O)(=O)c3c(C)[nH]c(=O)[nH]c3=O)C2)cc1Cl (stereo not shown)	11.3
NC12CC3CC(C1)CC(CO)(C3)O2	13.6
CSCC[C@H](NC(=O)c1cc([N+](=O)[O-])ccc1Cl)c1nc2ccccc2[nH]1	-9.02
CCOc1ccc(S(=O)(=O)N2CCN(Cc3ccc4c(c3)OCO4)CC2)cc1OCC	9.46
Cn1ncc([N+](=O)[O-])c1C(=O)Nc1ccc(-c2ccccc2)cc1	12.3
CCO[C@@H]1OC(C(=O)NCc2nc3ccccc3[nH]2)=C[C@H](C2CCCCC2)[C@H]1CCCO	11.9
COc1ccc(/C=C2\Oc3cc(OCC(=O)N4CCC[C@H]4CO)ccc3C2=O)c(OC)c1	8.56
Cc1ccoc1C(=O)NCCCNC(=O)c1occc1C	20
Cc1ccc2nc(N/N=C/c3ccco3)cc(C)c2c1	-62.9
Cc1cc(Cl)c(C(=O)Nc2cccc(C(F)(F)F)c2)c(C)n1.Cl	6.71
COc1ccc(S(=O)(=O)Nc2cccc(C)c2C)c2cccnc12	15.2
CC(NCc1ccc(Cl)c(Cl)c1)C(O)c1ccccc1.Cl (stereo not shown)	6.93
Cc1ccc(-c2csc(NC(=O)C[n+]3cc(-c4ccc(C)cc4)n4c3CCC4)n2)cc1.[Cl-]	2.27
O=C(NCC1CCCO1)c1ccc2ccccc2n1 (stereo not shown)	-0.826
COc1ccccc1NC(=O)C1=C(C)Nc2nnnn2C1c1cccc(Br)c1 (stereo not shown)	10.6
CCOC(=O)C1C(c2ccccc2)N(C)OC1(O)C(F)(F)F (stereo not shown)	9.96
